Data on five molecules can be found in paper PMC5386371.

By UniProt entry, the sequences of proteins in these tests, tags left out. Where a name states a change or a piece, a line headed by the entry shows the natural chain unless it says otherwise.
UniProt O43524: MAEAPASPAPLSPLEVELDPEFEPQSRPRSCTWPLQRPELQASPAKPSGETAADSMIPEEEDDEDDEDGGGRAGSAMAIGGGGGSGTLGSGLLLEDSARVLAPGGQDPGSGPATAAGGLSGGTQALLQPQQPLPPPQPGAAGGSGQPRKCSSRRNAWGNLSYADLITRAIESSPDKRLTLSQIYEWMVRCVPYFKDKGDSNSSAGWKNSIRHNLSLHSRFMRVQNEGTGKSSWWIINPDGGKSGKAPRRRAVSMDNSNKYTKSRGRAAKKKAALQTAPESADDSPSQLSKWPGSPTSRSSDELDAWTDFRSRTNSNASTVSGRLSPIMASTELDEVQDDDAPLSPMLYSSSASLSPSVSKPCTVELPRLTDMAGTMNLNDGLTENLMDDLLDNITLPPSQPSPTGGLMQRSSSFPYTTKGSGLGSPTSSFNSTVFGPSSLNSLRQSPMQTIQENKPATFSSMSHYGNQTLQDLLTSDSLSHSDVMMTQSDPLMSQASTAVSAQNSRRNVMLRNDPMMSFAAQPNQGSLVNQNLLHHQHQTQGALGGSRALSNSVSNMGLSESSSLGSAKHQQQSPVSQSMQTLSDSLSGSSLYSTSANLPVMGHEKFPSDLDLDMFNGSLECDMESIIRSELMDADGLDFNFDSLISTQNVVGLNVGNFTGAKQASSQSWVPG

The target of assay [1] is T1, REP1-FLAG mutant (hREP1-S473X, 1-472 a.a.) (human) (UniProt P24386).
T1 sequence: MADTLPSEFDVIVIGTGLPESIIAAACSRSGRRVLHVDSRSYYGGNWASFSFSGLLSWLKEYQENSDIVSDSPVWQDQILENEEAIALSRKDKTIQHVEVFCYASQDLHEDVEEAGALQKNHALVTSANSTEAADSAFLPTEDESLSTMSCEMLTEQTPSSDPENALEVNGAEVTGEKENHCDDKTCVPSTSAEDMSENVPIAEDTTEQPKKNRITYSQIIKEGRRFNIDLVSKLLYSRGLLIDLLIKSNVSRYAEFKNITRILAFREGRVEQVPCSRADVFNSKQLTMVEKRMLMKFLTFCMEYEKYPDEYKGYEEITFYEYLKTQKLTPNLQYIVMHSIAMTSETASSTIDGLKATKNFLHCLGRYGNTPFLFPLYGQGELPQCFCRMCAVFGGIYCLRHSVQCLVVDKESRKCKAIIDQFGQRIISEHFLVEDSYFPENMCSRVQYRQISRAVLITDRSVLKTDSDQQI
Briefly: co-IP; HEK293 cells co-transfected with FOXO3-HA and REP1-FLAG (WT or Mut), 48 h; NP40 lysis buffer (50 mM Tris-HCl pH 8.0, 5 mM EDTA, 150 mM NaCl, 1% NP-40); IP with anti-HA or anti-FLAG for 16 h; western blot with anti-FOXO3 and anti-REP1. For orientation: Immunoblotting shows a protein as a band on a membrane.

Assay [2] deals with T2, REP1-FLAG wild type (hREP1-full, 1-653 a.a.) (human) (UniProt P24386).
T2 sequence: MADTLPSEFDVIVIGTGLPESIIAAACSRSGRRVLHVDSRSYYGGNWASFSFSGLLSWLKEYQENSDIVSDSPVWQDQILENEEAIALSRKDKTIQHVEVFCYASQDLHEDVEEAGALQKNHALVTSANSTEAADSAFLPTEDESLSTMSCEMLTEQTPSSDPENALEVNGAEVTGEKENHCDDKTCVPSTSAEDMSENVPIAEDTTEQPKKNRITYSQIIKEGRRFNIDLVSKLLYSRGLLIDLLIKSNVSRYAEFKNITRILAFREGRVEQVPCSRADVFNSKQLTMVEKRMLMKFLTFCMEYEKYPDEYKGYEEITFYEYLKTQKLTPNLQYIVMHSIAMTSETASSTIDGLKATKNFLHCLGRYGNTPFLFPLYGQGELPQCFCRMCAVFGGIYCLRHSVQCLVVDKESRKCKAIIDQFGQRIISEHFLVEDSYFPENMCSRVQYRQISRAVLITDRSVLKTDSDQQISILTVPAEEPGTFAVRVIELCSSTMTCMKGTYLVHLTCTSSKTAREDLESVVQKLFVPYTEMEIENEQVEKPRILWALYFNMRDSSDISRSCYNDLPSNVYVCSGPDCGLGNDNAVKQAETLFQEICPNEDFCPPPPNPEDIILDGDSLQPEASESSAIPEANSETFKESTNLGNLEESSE
Described as above.

In assay [3] the target is T3, endogenous REP1 (HCT116 cells) (human (endogenous in HCT116)) (UniProt P24386).
T3 sequence: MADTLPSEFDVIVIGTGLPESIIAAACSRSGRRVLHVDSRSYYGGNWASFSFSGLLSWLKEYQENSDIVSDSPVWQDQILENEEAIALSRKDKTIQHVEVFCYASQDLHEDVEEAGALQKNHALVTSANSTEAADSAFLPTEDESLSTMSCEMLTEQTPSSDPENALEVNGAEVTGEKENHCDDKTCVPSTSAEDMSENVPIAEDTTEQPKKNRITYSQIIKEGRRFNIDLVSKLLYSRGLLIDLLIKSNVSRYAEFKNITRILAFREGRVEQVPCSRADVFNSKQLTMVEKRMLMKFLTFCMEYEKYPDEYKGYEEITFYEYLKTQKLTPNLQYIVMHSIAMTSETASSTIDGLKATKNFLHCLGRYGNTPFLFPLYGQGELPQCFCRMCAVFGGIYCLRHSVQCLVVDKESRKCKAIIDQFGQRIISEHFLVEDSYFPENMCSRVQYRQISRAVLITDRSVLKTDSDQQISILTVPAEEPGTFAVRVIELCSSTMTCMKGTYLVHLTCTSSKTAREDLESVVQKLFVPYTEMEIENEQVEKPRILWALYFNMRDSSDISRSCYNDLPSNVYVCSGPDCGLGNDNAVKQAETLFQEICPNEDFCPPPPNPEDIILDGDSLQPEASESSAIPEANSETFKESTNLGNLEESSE
Briefly: co-IP; endogenous proteins in HCT116 lysate (NP40 lysis buffer); IP with anti-FOXO3, anti-REP1 or rabbit IgG for 16 h; western blot.

The target of assay [4] is FOXO3-HA (full-length human FOXO3a) (human) (UniProt O43524). Briefly: co-IP; HEK293 cells co-transfected with FOXO3-HA and REP1-FLAG (WT or Mut), 48 h; NP40 lysis buffer (50 mM Tris-HCl pH 8.0, 5 mM EDTA, 150 mM NaCl, 1% NP-40); IP with anti-HA or anti-FLAG for 16 h; western blot with anti-FOXO3 and anti-REP1.
The target of assay [5] is endogenous FOXO3 (HCT116 cells) (human (endogenous in HCT116)) (UniProt O43524). Briefly: co-IP; endogenous proteins in HCT116 lysate (NP40 lysis buffer); IP with anti-FOXO3, anti-REP1 or rabbit IgG for 16 h; western blot.

Results are given in words; binding and its absence hold for the method and conditions named. In cells and extracts the contact can be indirect. Some results given as binding are weak or reduced against the parent protein; the word gives no strength. For part of these data: Tags and fused reporters may be left off the sequences shown.

For the molecule “FOXO3-HA (full-length human FOXO3a) (from UniProt O43524-1 1-673)”, the binding entry in assay [1] is reported as “no binding”; in assay [2], “binds”.

For “endogenous FOXO3 (HCT116 cells) (from UniProt O43524 1-673)”, the binding result in assay [3] is recorded as “binds”.

B1: REP1-FLAG wild type (hREP1-full, 1-653 a.a.) (protein, UniProt P24386 1-653)
chain: MADTLPSEFDVIVIGTGLPESIIAAACSRSGRRVLHVDSRSYYGGNWASFSFSGLLSWLKEYQENSDIVSDSPVWQDQILENEEAIALSRKDKTIQHVEVFCYASQDLHEDVEEAGALQKNHALVTSANSTEAADSAFLPTEDESLSTMSCEMLTEQTPSSDPENALEVNGAEVTGEKENHCDDKTCVPSTSAEDMSENVPIAEDTTEQPKKNRITYSQIIKEGRRFNIDLVSKLLYSRGLLIDLLIKSNVSRYAEFKNITRILAFREGRVEQVPCSRADVFNSKQLTMVEKRMLMKFLTFCMEYEKYPDEYKGYEEITFYEYLKTQKLTPNLQYIVMHSIAMTSETASSTIDGLKATKNFLHCLGRYGNTPFLFPLYGQGELPQCFCRMCAVFGGIYCLRHSVQCLVVDKESRKCKAIIDQFGQRIISEHFLVEDSYFPENMCSRVQYRQISRAVLITDRSVLKTDSDQQISILTVPAEEPGTFAVRVIELCSSTMTCMKGTYLVHLTCTSSKTAREDLESVVQKLFVPYTEMEIENEQVEKPRILWALYFNMRDSSDISRSCYNDLPSNVYVCSGPDCGLGNDNAVKQAETLFQEICPNEDFCPPPPNPEDIILDGDSLQPEASESSAIPEANSETFKESTNLGNLEESSE
Consider B1, for which the binding result in assay [4] is reported as “binds”.

B2: endogenous REP1 (HCT116 cells) (protein, UniProt P24386 1-653)
chain: MADTLPSEFDVIVIGTGLPESIIAAACSRSGRRVLHVDSRSYYGGNWASFSFSGLLSWLKEYQENSDIVSDSPVWQDQILENEEAIALSRKDKTIQHVEVFCYASQDLHEDVEEAGALQKNHALVTSANSTEAADSAFLPTEDESLSTMSCEMLTEQTPSSDPENALEVNGAEVTGEKENHCDDKTCVPSTSAEDMSENVPIAEDTTEQPKKNRITYSQIIKEGRRFNIDLVSKLLYSRGLLIDLLIKSNVSRYAEFKNITRILAFREGRVEQVPCSRADVFNSKQLTMVEKRMLMKFLTFCMEYEKYPDEYKGYEEITFYEYLKTQKLTPNLQYIVMHSIAMTSETASSTIDGLKATKNFLHCLGRYGNTPFLFPLYGQGELPQCFCRMCAVFGGIYCLRHSVQCLVVDKESRKCKAIIDQFGQRIISEHFLVEDSYFPENMCSRVQYRQISRAVLITDRSVLKTDSDQQISILTVPAEEPGTFAVRVIELCSSTMTCMKGTYLVHLTCTSSKTAREDLESVVQKLFVPYTEMEIENEQVEKPRILWALYFNMRDSSDISRSCYNDLPSNVYVCSGPDCGLGNDNAVKQAETLFQEICPNEDFCPPPPNPEDIILDGDSLQPEASESSAIPEANSETFKESTNLGNLEESSE
Regarding B2, in assay [5], the binding result is recorded as “binds”.

B3: REP1-FLAG mutant (hREP1-S473X, 1-472 a.a.) (domain or fragment, UniProt P24386 1-472)
chain: MADTLPSEFDVIVIGTGLPESIIAAACSRSGRRVLHVDSRSYYGGNWASFSFSGLLSWLKEYQENSDIVSDSPVWQDQILENEEAIALSRKDKTIQHVEVFCYASQDLHEDVEEAGALQKNHALVTSANSTEAADSAFLPTEDESLSTMSCEMLTEQTPSSDPENALEVNGAEVTGEKENHCDDKTCVPSTSAEDMSENVPIAEDTTEQPKKNRITYSQIIKEGRRFNIDLVSKLLYSRGLLIDLLIKSNVSRYAEFKNITRILAFREGRVEQVPCSRADVFNSKQLTMVEKRMLMKFLTFCMEYEKYPDEYKGYEEITFYEYLKTQKLTPNLQYIVMHSIAMTSETASSTIDGLKATKNFLHCLGRYGNTPFLFPLYGQGELPQCFCRMCAVFGGIYCLRHSVQCLVVDKESRKCKAIIDQFGQRIISEHFLVEDSYFPENMCSRVQYRQISRAVLITDRSVLKTDSDQQI
Regarding B3, the binding result in assay [4] was “no binding”.
